According to PubChem BioAssay AID1508642 (National Center for Advancing Translational Sciences (NCATS), 2021):
The whole screen tested about 43,000 compounds, of which about 200 (0.47%) were called active. Another 12% or so got no clear call; they are omitted. Calls come from the whole dose curve; as a rule, active = well fitted cell-killing curve with a large enough effect; inconclusive = small, poorly fitted or top-dose-only effect, or effect the other way; inactive = flat fitted curve, though single readings scatter. Some of the results follow.

Experiment: Cell viability qHTS assay in S16 Pmp22-F2sN cells; note: nearly all actives have a fitted effect of over 65% in size
Details: S16 Pmp22-F2sN Schwann cells (luciferase reporters placed in the Pmp22 gene) viability, CellTiter-Glo, 24 h; series mostly up to 57.5 µM; activity change, negative = cytotoxicity: at the top concentration
In short: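 Luminescence from CellTiter-Glo, read by CCD camera after a 15 min room-temperature incubation, served as the viability signal. Reporter Schwann cells (S16 Pmp22-F2sN) had been treated with pin-transferred compounds for 24 h at 37C.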
% is set by controls: 0 for no effect and ±100 for the full control effect; potency is the fitted concentration of half-maximal effect.

Row | Compound | activity change, negative = cytotoxicity | Potency
1 | Cc1cccc(C(=O)Nc2sc3c(c2C(=O)NC(C)C)CCCC3)c1 | inactive: 18.8% | 
2 | CCOC(=O)c1cc(S(=O)(=O)NCc2cccc(Cl)c2)[nH]n1 | inactive: 4.59% | 
3 | CC(=O)c1ccc(N2CCN(C(=O)CCc3nnc4n(C)c(=O)c5sccc5n34)CC2)cc1 | inactive: 23.7% | 
4 | CCCCn1c(SCC(=O)Nc2ccc(OCC)cc2)nc2ccsc2c1=O | inactive: -19.2% | 
5 | Cc1ccc(NS(=O)(=O)c2cc3[nH]c(=O)c(=O)[nH]c3cc2C)cc1N(C)C | inactive: -2.04% | 
6 | Cc1ccc(NC(=O)CCCn2c(=O)c3cccn3c3cccnc32)cc1C | inactive: 23.4% | 
7 | CCc1ccccc1NC(=O)[C@@H](c1ccccc1)N1Cc2ccccc2C1=O | inactive: 4.88% | 
8 | CC(C)(C)OC(=O)N1CCC(c2c(C(=O)N3CCCCC3)cnn2-c2cccc(F)c2)CC1 | inactive: -12.9% | 
9 | COc1cccc2cc(-c3nc(Nc4cccc(C)c4C)sc3C)c(=O)oc12 | inactive: -0.417% | 
10 | Nc1nonc1C(=O)NCCNCc1ccccc1F | inactive: 7.31% | 
11 | CC(=O)C1=C(c2ccc(Cl)c(Cl)c2)N(C(C)=O)n2c(nnc2-c2ccccc2)S1 | inactive: 6.69% | 
12 | O=C(COCc1cc(-c2ccc(F)cc2)on1)Nc1cc(Cl)ccc1O | inactive: 24.4% | 
13 | Cc1ccccc1-n1nc(CO)c(C(=O)NCC(c2ccccc2)c2ccccc2)n1 | inactive: -3.62% | 
14 | COc1ccc(CCNC(=O)CCCn2c(=O)c3ccccc3n(Cc3ccccc3C#N)c2=O)cc1OC | inactive: -0.857% | 
15 | CCOC(=O)c1c(NC(=O)/C=C/c2ccc(C)cc2)sc(C(C)=O)c1C | inactive: 19% | 
16 | COc1cc(C(CC(=O)Nc2cccc(C(C)=O)c2)N2Cc3ccccc3C2=O)cc(OC)c1OC (configuration not stated) | inactive: -3.09% | 
17 | CC(=O)Nc1nonc1-c1nnc(SCC(=O)Nc2cc(Cl)ccc2C)n1C | inactive: -12.9% | 
18 | CCOC(=O)C(CC)n1nc(C)c2c(C)n(-c3ccc(C)cc3)nc2c1=O (configuration not stated) | inactive: -13.9% | 
19 | CCCCN(CCCNC(=O)c1cc(Nc2ccc(OC)cc2)nc2ccccc12)Cc1ccccc1 | inactive: 0.452% | 
20 | COc1ccc(C(=O)c2sc3nc(-c4ccc(C)cc4)cc(C(F)(F)F)c3c2N)cc1 | inactive: 4.39% | 
21 | CCCCc1c(C)nc2c(-c3ccc(Cl)cc3)c(C)[nH]n2c1=O |  | active: 5.01 µM
22 | Cc1ccc(C)c(N2CCN(S(=O)(=O)c3ccc(-c4coc(C)n4)cc3)CC2)c1 | inactive: 9.56% | 
23 | Cc1cccc(N2CCN(C(=O)Cn3ncc4c5ccccc5n(C)c4c3=O)CC2C)c1 (configuration not stated) | inactive: 14.9% | 
24 | Cc1ccc(S(=O)(=O)c2nc(S(=O)(=O)c3ccc(C)cc3)c(NCCCOC(C)C)s2)cc1 | inactive: -13.5% | 
25 | O=S(=O)(Nc1ccc(F)c(Cl)c1)c1ccc(Br)s1 | inactive: -0.424% | 
26 | Cc1cccc(C(=O)NCCc2nc3ccccc3n2Cc2ccc(Cl)cc2)c1 | inactive: -18.7% | 
27 | Cc1ccc(OC(C)C(=O)N2CCN(CCc3ccncc3)CC2)cc1C (configuration not stated) | inactive: 1.79% | 
